# Source: PubChem BioAssay (NCATS)
# Values joined by “and” are separate entries in the source; they are usually repeats but may differ in a detail not shown here. Identical values can stand only once. This list was built around the results that the source calls inconclusive (neither active nor inactive); the mix of calls is not that of the screen. For some assays here: A potency beside an inconclusive call is a rough fit, not a confirmed value. Active and inactive are the calls of the source. Unless noted, the call rests on the fitted dose curve; in most records, active means well fitted curve in the direction sought with a large enough effect; inconclusive means small, poorly fitted or top-dose-only effect, or another doubt; inactive means no such curve, though single readings can be large; an effect the other way counts as inactive or inconclusive.
# How the values were obtained:
# [1] = target: Aldehyde dehydrogenase, mitochondrial (Homo sapiens) (UniProt P05091); assay: qHTS for Inhibitors of the Aldehyde Dehydrogenase Family (ALDH2) Confirmatory screens (AID 2061303; active means well fitted inhibition curve with a large enough effect; inconclusive means small, poorly fitted or top-dose-only effect; inactive means no such curve, though single readings can be large or run the other way; title and protocol of this record describe different tests; further: nearly all actives have a fitted effect of over 45% in size); conditions: ALDH inhibition qHTS; activity change, negative = inhibition: at 45.4 µM (top of the series)
# [2] = qHTS for Inhibitors of the Aldehyde Dehydrogenase Family (ALDH1A2, ALDH1A3, ALDH2, ALDH3A1) (AID 2061307); conditions: ALDH inhibition qHTS; activity change, negative = inhibition: at 50.3 µM (top of the series) unless noted; further: nearly all actives have a fitted effect of over 50% in size; on potency: test system not described further here
# [3] = target: Aldehyde dehydrogenase, mitochondrial (Homo sapiens) (UniProt P05091); assay: qHTS for Inhibitors of the Aldehyde Dehydrogenase Family (ALDH2) Primary screen (AID 2061308); further: nearly all actives have a fitted effect of over 55% in size
# [4] = target: Retinaldehyde dehydrogenase 3 (Homo sapiens) (UniProt P47895); assay: qHTS for Inhibitors of the Aldehyde Dehydrogenase Family (ALDH1A3) Confirmatory screens (AID 2061311); conditions: activity change, negative = inhibition: at 46 µM (top of the series); further: nearly all actives have a fitted effect of over 60% in size
# [5] = target: Retinal dehydrogenase 2 (Homo sapiens) (UniProt O94788); assay: qHTS for Inhibitors of the Aldehyde Dehydrogenase Family (ALDH1A2) Confirmation screens (AID 2061314); conditions: activity, negative = inhibition: at 45.9 µM (top of the series) unless noted; further: nearly all actives have a fitted effect of over 65% in size
# [6] = target: Aldehyde dehydrogenase 1A1 (Homo sapiens) (UniProt P00352); assay: qHTS for Inhibitors of the Aldehyde Dehydrogenase Family (ALDH1A1) Confirmatory screens (AID 2061316); conditions: activity change, negative = inhibition: at 47.3 µM (top of the series); further: nearly all actives have a fitted effect of over 65% in size
# [7] = target: Retinaldehyde dehydrogenase 3 (Homo sapiens) (UniProt P47895); assay: qHTS for Inhibitors of the Aldehyde Dehydrogenase Family (ALDH1A3) Primary screen (AID 2061315); conditions: ALDH inhibition qHTS; activity change, negative = inhibition: at 56 µM (top of the series) unless noted
# [8] = target: Retinaldehyde dehydrogenase 3 (Homo sapiens) (UniProt P47895); assay: qHTS for Inhibitors of the Aldehyde Dehydrogenase Family (ALDH1A3) Validation screen (AID 2061312); conditions: ALDH1A3 enzyme inhibition qHTS validation, fluorescence; activity change, negative = inhibition: at 84.7 µM (top of the series); further: nearly all actives have a fitted effect of over 45% in size
# Potency means the concentration at half of the fitted maximal effect; tags describe the fitted curve by direction and shape.
SMILES,Potency [1],Potency [2],Potency [3],Potency [4],Potency [5],Potency [6],Potency [7],Potency [8]
COc1cc(/C=C2/C(=O)Nc3ccccc32)cc(OC)c1O,"inconclusive: 11.3 µM [inhibitor, partial curve]","inconclusive: 22.5 µM [inhibitor, partial curve, poor fit]","inconclusive: 3.98 µM [inhibitor, full curve, poor fit]","inconclusive: 15.9 µM [inhibitor, partial curve]","inconclusive: 22.5 µM [inhibitor, partial curve, poor fit]","inconclusive: 22.5 µM [inhibitor, partial curve]",,
O=Cc1ccc(-c2ccc3ncnc(NCc4cccs4)c3c2)o1,active: 11.3 µM,inactive,"inconclusive: 11.2 µM [inhibitor, partial curve]","inconclusive: 25.2 µM [inhibitor, partial curve]",,"inconclusive: 8.96 µM [inhibitor, partial curve]",,
N#Cc1c(-c2ccc(F)c(Br)c2)no[n+]1[O-],"inconclusive: 2.51 µM [inhibitor, full curve, poor fit]","inconclusive: 1.26 µM [inhibitor, full curve, poor fit]",active: 3.98 µM,"inconclusive: 20.1 µM [inhibitor, partial curve]",,active: 20.1 µM,,
CCN(CC)c1ccc(NC(=O)Nc2ccc(C(C)=O)cc2)cc1,inactive,"inconclusive: 8.96 µM [inhibitor, partial curve]","inconclusive: 3.16 µM [inhibitor, partial curve, poor fit]","inconclusive: 11.3 µM [inhibitor, partial curve]",,"inconclusive: 12.7 µM [inhibitor, partial curve]",,
Cc1ccnc(NC(=S)N2CCNCC2)c1,"inconclusive: 4.49 µM [inhibitor, partial curve, poor fit]",inactive,"inconclusive: 20 µM [inhibitor, partial curve]","inconclusive: 11.3 µM [inhibitor, partial curve]",,"inconclusive: 14.2 µM [inhibitor, partial curve]","inconclusive: 22.4 µM [inhibitor, partial curve]",
COc1ccc(C2Nc3ccc(Cl)cc3C(=O)N2Cc2ccccc2)cc1COc1ccc(NC(C)=O)cc1 (stereo not drawn),"inconclusive: 22.5 µM [inhibitor, partial curve]",active: 3.57 µM,"inconclusive: 14.1 µM [inhibitor, partial curve, poor fit]","inconclusive: 15.8 µM [inhibitor, full curve, poor fit]",,active: 22.5 µM,inactive,
CC(C)(C)c1ccc(-c2nnc(NC(=O)Nc3ccc4ccccc4c3)s2)cc1,"inconclusive: 14.2 µM [inhibitor, partial curve]",active: 10.1 µM,"inconclusive: 14.1 µM [inhibitor, partial curve]","inconclusive: 25.2 µM [inhibitor, partial curve, poor fit]","inconclusive: 25.2 µM [inhibitor, partial curve, poor fit]",active: 11.3 µM,,
COc1ccc(-c2ccc(C)cc2)cc1CC(=O)N(C)C(C)c1ccco1 (stereo not drawn),"inconclusive: 11.2 µM [inhibitor, full curve, poor fit]","inconclusive: 0.355 µM [inhibitor, full curve, poor fit]","inconclusive: 28.2 µM [inhibitor, partial curve]",,active: 6.31 µM,active: 11.3 µM,"inconclusive: 1.41 µM [inhibitor, full curve]",
CN1CCN(C(=O)CN[C@@H]2C[C@H]2c2ccc(OCc3ccccc3)cc2)CC1,active: 14.1 µM,"inconclusive: 5.01 µM [inhibitor, full curve, poor fit]","inconclusive: 8.91 µM [inhibitor, partial curve]",,"inconclusive: 22.5 µM [inhibitor, partial curve]",,"inconclusive: 0.316 µM [inhibitor, full curve]",active: 1.41 µM
CC(C(=O)O)c1ccc2c(c1)[nH]c1ccc(Cl)cc12 (stereo not drawn),"inconclusive: 12.7 µM [inhibitor, partial curve]","inconclusive: 11.3 µM [inhibitor, partial curve]","inconclusive: 15.8 µM [inhibitor, partial curve]",active: 15.9 µM,,"inconclusive: 12.7 µM [inhibitor, partial curve]",,
Cc1ccc(S(=O)(=O)Nc2cnccc2C(=O)Nc2nc(-c3ccco3)cs2)cc1,"inconclusive: 14.1 µM [inhibitor, partial curve]",active: 7.98 µM,"inconclusive: 8.91 µM [inhibitor, partial curve]",,"inconclusive: 10.1 µM [inhibitor, partial curve]",,inactive,
O=S(=O)(Nc1ccc(O)c2ncccc12)c1ccccc1F,active: 4.49 µM,"inconclusive: 2.83 µM [inhibitor, partial curve]","inconclusive: 1.41 µM [inhibitor, full curve]",,active: 2.83 µM,,"inconclusive: 12.6 µM [inhibitor, partial curve, poor fit] and inconclusive: 1.78 µM [inhibitor, full curve]",
CO[C@]1(NC(=O)CSC(F)F)C(=O)N2C(C(=O)O)=C(CSc3nnnn3CCO)CO[C@H]21,"inconclusive: 22.5 µM [inhibitor, partial curve]",inactive,"inconclusive: 22.4 µM [inhibitor, partial curve, poor fit]",,inactive,,,
CCOc1ccc(CCNC(=O)c2ccc(N3N=C(C)CC3=O)cc2)cc1OCC,active: 1.26 µM,"inconclusive: 35.7 µM [inhibitor, single point]","inconclusive: 1.12 µM [inhibitor, full curve, poor fit]",,active: 0.896 µM,,,
CC(=O)Nc1ccc(OCc2cccc(-c3nc4ccccc4c(=O)n3Cc3ccco3)c2)cc1,"inconclusive: 11.3 µM [inhibitor, partial curve]","inconclusive: 11.3 µM [inhibitor, partial curve]","inconclusive: 10 µM [inhibitor, partial curve, poor fit]",,active: 7.98 µM,,,
Cc1ccnc(NCc2ccc(O)c3ncccc23)c1,"inconclusive: 7.98 µM [inhibitor, partial curve]","inconclusive: 8.96 µM [inhibitor, partial curve]","inconclusive: 15.8 µM [inhibitor, partial curve]",,"inconclusive: 11.3 µM [inhibitor, partial curve, poor fit]",,"inconclusive: 10 µM [inhibitor, partial curve, poor fit]",
C#CCOc1ccc(-c2no[n+]([O-])c2C#N)cc1,"inconclusive: 12.7 µM [inhibitor, partial curve]",active: 11.3 µM,"inconclusive: 2.24 µM [inhibitor, full curve]","inconclusive: 22.5 µM [inhibitor, partial curve]",,"inconclusive: 25.2 µM [inhibitor, partial curve]",,
CC(O)c1ccc(-c2ccc3ncnc(N4CCOCC4)c3c2)o1 (stereo not drawn),"inconclusive: 22.5 µM [inhibitor, partial curve]","inconclusive: 12.7 µM [inhibitor, partial curve]","active: 8.91 µM and inconclusive: 20 µM [inhibitor, partial curve]","inconclusive: 20.1 µM [inhibitor, partial curve]",,active: 11.3 µM,,
COc1cc(C(=O)OC[C@H]2O[C@@H](Oc3ccccc3/C=C/C(=O)O)[C@H](O)[C@@H](O)[C@@H]2O)cc(OC)c1OC,"inconclusive: 6.18 µM [inhibitor, partial curve, poor fit]","inconclusive: 15.8 µM [inhibitor, partial curve, poor fit]",inactive,,"inconclusive: 3.9 µM [inhibitor, partial curve, poor fit]","inconclusive: 6.18 µM [inhibitor, partial curve]","inconclusive: 11.2 µM [inhibitor, partial curve]",
CC(=O)Nc1sc2c(c1-c1ccco1)CCNC2,"inconclusive: 11.3 µM [inhibitor, partial curve, poor fit]",inactive,"inconclusive: 31.6 µM [inhibitor, partial curve, poor fit]",,active: 17.9 µM,,,
Oc1cc(-c2cccnc2)cc2cccnc12,"inconclusive: 0.634 µM [inhibitor, full curve, poor fit]","inconclusive: 3.18 µM [inhibitor, partial curve, poor fit]","inconclusive: 1.58 µM [inhibitor, partial curve, poor fit]",active: 4.49 µM,,"inconclusive: 4.49 µM [inhibitor, partial curve]",,
S=C(Nc1ccccn1)c1ccccn1,active: 28.3 µM,"inconclusive: 20.1 µM [inhibitor, partial curve]",active: 11.2 µM,,"inconclusive: 28.3 µM [inhibitor, partial curve, poor fit]",,"inconclusive: 2.24 µM [inhibitor, full curve]",
